{"source": "the supplement of paper PMC10126150", "note": "Sequences with one replicate were seen in a single cluster, so their values are uncertain.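 Also: ATP exposure 15 min at 22 °C before imaging.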"}
{"system": "ATP", "experiment": "switch fluorescence ratio, 500 uM ATP over buffer (Cy3 cluster intensity, sum of 5 cycles each) (fold (ratio)); higher = stronger signal-on switching upon ATP binding; sequences stand for … in TCGTCGGCAGCGTCAGATGTGTATAAGAGACAGTTTTTTTTTTTTTTTTTTTTTTTTT…TC", "details": "aptamer strand: ATP DNA aptamer (quencher-CACCTGGGGGAGTATTGCGGAGGAAGG + anchor), 100 nM annealed; ATP concentration: 500 uM; one replicate", "method_in_brief": "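The quencher-labelled ATP aptamer, at 100 nM, was annealed to Cy3-labelled switching-strand clusters on a modified Illumina MiSeq flow-cell. The clusters were imaged in selection buffer, then after 15 min with 500 uM ATP at 22 °C, and this buffer/ATP cycle ran five times with NaOH stripping and re-annealing between runs. Per-cluster fluorescence ratios, summed target-cycle over summed buffer-cycle Cy3 intensity, were averaged per switch-domain sequence. Clusters outside 100-1000 RFU were excluded.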"}
{"sequence": "TATGTAAGAA", "switch fluorescence ratio": 0.986}
{"sequence": "TATGTAAGTA", "switch fluorescence ratio": 1.01}
{"sequence": "TATGTCTAT", "switch fluorescence ratio": 0.995}
{"sequence": "TATGTGGATC", "switch fluorescence ratio": 0.997}
{"sequence": "TATGTGGGCA", "switch fluorescence ratio": 0.988}
{"sequence": "TATGTGGTCG", "switch fluorescence ratio": 1}
{"sequence": "TATGTGTTAC", "switch fluorescence ratio": 0.997}
{"sequence": "TATGTTAAGA", "switch fluorescence ratio": 1}
{"sequence": "TATTAAGGAC", "switch fluorescence ratio": 1}
{"sequence": "TATTAATTTA", "switch fluorescence ratio": 1.02}
{"sequence": "TATTACGGAA", "switch fluorescence ratio": 1.01}
{"sequence": "TATTAGAGAG", "switch fluorescence ratio": 1.01}
{"sequence": "TATTAGAGT", "switch fluorescence ratio": 1.04}
{"sequence": "TATTAGCAAC", "switch fluorescence ratio": 1.12}
{"sequence": "TATTAGTCCA", "switch fluorescence ratio": 1}
{"sequence": "TATTATGATA", "switch fluorescence ratio": 1.02}
{"sequence": "TATTATTAGC", "switch fluorescence ratio": 0.99}
{"sequence": "TATTCCAATT", "switch fluorescence ratio": 0.99}
{"sequence": "TATTCCCACG", "switch fluorescence ratio": 1.03}
{"sequence": "TATTCCGTTA", "switch fluorescence ratio": 1.04}
{"sequence": "TATTCCTAGT", "switch fluorescence ratio": 1}
{"sequence": "TATTCGAATC", "switch fluorescence ratio": 0.966}
{"sequence": "TATTCGACGG", "switch fluorescence ratio": 1.05}
{"sequence": "TATTCGCCAC", "switch fluorescence ratio": 1.15}
{"sequence": "TATTCTAACT", "switch fluorescence ratio": 0.97}
{"sequence": "TATTCTCCAT", "switch fluorescence ratio": 0.986}
{"sequence": "TATTCTCGCA", "switch fluorescence ratio": 1.11}
{"sequence": "TATTCTGCG", "switch fluorescence ratio": 0.988}
{"sequence": "TATTGAAGCG", "switch fluorescence ratio": 0.984}
{"sequence": "TATTGACTCT", "switch fluorescence ratio": 1.04}
{"sequence": "TATTGATTAT", "switch fluorescence ratio": 0.977}
{"sequence": "TATTGGGAG", "switch fluorescence ratio": 1.05}
{"sequence": "TATTGGGGCC", "switch fluorescence ratio": 1.07}
{"sequence": "TATTGTAAAA", "switch fluorescence ratio": 1.08}
{"sequence": "TATTGTTAGT", "switch fluorescence ratio": 0.982}
{"sequence": "TATTTAACAG", "switch fluorescence ratio": 1.05}
{"sequence": "TATTTAGCTA", "switch fluorescence ratio": 1.03}
{"sequence": "TATTTATGAG", "switch fluorescence ratio": 1.01}
{"sequence": "TATTTCTACG", "switch fluorescence ratio": 1.07}
{"sequence": "TATTTGAAG", "switch fluorescence ratio": 1}
{"sequence": "TATTTGACTA", "switch fluorescence ratio": 1.01}
{"sequence": "TATTTGTTT", "switch fluorescence ratio": 1}
{"sequence": "TATTTTACAC", "switch fluorescence ratio": 0.959}
{"sequence": "TATTTTAGCA", "switch fluorescence ratio": 1.04}
{"sequence": "TATTTTCGT", "switch fluorescence ratio": 0.96}
{"sequence": "TATTTTGAGG", "switch fluorescence ratio": 0.989}
{"sequence": "TATTTTTCTA", "switch fluorescence ratio": 1}
{"sequence": "TCAAAACAGG", "switch fluorescence ratio": 1.05}
{"sequence": "TCAAAATATC", "switch fluorescence ratio": 1.01}
{"sequence": "TCAAAGAGAT", "switch fluorescence ratio": 1.03}
{"sequence": "TCAAAGCTGG", "switch fluorescence ratio": 1.03}
{"sequence": "TCAAAGTACT", "switch fluorescence ratio": 1.12}
{"sequence": "TCAAATACGG", "switch fluorescence ratio": 1.27}
{"sequence": "TCAAATTCCG", "switch fluorescence ratio": 1.02}
{"sequence": "TCAACAAAGC", "switch fluorescence ratio": 0.991}
{"sequence": "TCAACAGCGA", "switch fluorescence ratio": 1.04}
{"sequence": "TCAACCCCTT", "switch fluorescence ratio": 0.993}
{"sequence": "TCAACCCGCG", "switch fluorescence ratio": 1.04}
{"sequence": "TCAACGACGG", "switch fluorescence ratio": 1.03}
{"sequence": "TCAACGCATT", "switch fluorescence ratio": 2.09}
{"sequence": "TCAACGGAGA", "switch fluorescence ratio": 0.981}
{"sequence": "TCAACGTAAT", "switch fluorescence ratio": 1.84}
{"sequence": "TCAACGTCGA", "switch fluorescence ratio": 1.07}
{"sequence": "TCAACGTTAC", "switch fluorescence ratio": 1.86}
{"sequence": "TCAAGAACTT", "switch fluorescence ratio": 1.02}
{"sequence": "TCAAGAAGGG", "switch fluorescence ratio": 0.992}
{"sequence": "TCAAGCAATC", "switch fluorescence ratio": 4.73}
{"sequence": "TCAAGGGAG", "switch fluorescence ratio": 1.01}
{"sequence": "TCAAGGGTGG", "switch fluorescence ratio": 1.03}
{"sequence": "TCAAGGTGAC", "switch fluorescence ratio": 1.1}
{"sequence": "TCAAGTAATG", "switch fluorescence ratio": 1.03}
{"sequence": "TCAATAACGT", "switch fluorescence ratio": 1.03}
{"sequence": "TCAATCCAGT", "switch fluorescence ratio": 1}
{"sequence": "TCAATCCGGT", "switch fluorescence ratio": 1.45}
{"sequence": "TCAATCTATT", "switch fluorescence ratio": 1.01}
{"sequence": "TCAATGAGTT", "switch fluorescence ratio": 0.992}
{"sequence": "TCAATGGTCA", "switch fluorescence ratio": 1.03}
{"sequence": "TCAATGTATT", "switch fluorescence ratio": 1.01}
{"sequence": "TCAATTATGT", "switch fluorescence ratio": 0.998}
{"sequence": "TCACAACGGG", "switch fluorescence ratio": 1.06}
{"sequence": "TCACAATCAA", "switch fluorescence ratio": 1}
{"sequence": "TCACAGAGTA", "switch fluorescence ratio": 0.991}
{"sequence": "TCACAGCCAA", "switch fluorescence ratio": 2.36}
{"sequence": "TCACAGGTAG", "switch fluorescence ratio": 1.37}
{"sequence": "TCACATCTTA", "switch fluorescence ratio": 1.07}
{"sequence": "TCACATGGAA", "switch fluorescence ratio": 1.04}
{"sequence": "TCACATTCGC", "switch fluorescence ratio": 1.09}
{"sequence": "TCACATTGC", "switch fluorescence ratio": 1}
{"sequence": "TCACCCTGGG", "switch fluorescence ratio": 1.05}
{"sequence": "TCACCGGGTC", "switch fluorescence ratio": 1.09}
{"sequence": "TCACGAGCGG", "switch fluorescence ratio": 1.01}
{"sequence": "TCACGGAAAC", "switch fluorescence ratio": 1.15}
{"sequence": "TCACGGTGT", "switch fluorescence ratio": 1.05}
{"sequence": "TCACTACCAC", "switch fluorescence ratio": 1.3}
{"sequence": "TCACTCAAAT", "switch fluorescence ratio": 1.03}
{"sequence": "TCACTCTCCC", "switch fluorescence ratio": 1.1}
{"sequence": "TCACTGGTGG", "switch fluorescence ratio": 1.01}
{"sequence": "TCACTTAAGT", "switch fluorescence ratio": 1.13}
{"sequence": "TCAGACATAA", "switch fluorescence ratio": 0.966}
{"sequence": "TCAGACGGC", "switch fluorescence ratio": 0.975}
{"sequence": "TCAGACTTCA", "switch fluorescence ratio": 1.01}
{"sequence": "TCAGAGAAT", "switch fluorescence ratio": 0.979}
{"sequence": "TCAGAGAGTA", "switch fluorescence ratio": 0.982}
{"sequence": "TCAGAGTCGC", "switch fluorescence ratio": 0.932}
{"sequence": "TCAGAGTTC", "switch fluorescence ratio": 0.989}
{"sequence": "TCAGATTTTG", "switch fluorescence ratio": 1}
{"sequence": "TCAGGAACCG", "switch fluorescence ratio": 0.981}
{"sequence": "TCAGGAACTT", "switch fluorescence ratio": 1.05}
{"sequence": "TCAGGATTAT", "switch fluorescence ratio": 1}
{"sequence": "TCAGGCCTAG", "switch fluorescence ratio": 1.02}
{"sequence": "TCAGGGACCA", "switch fluorescence ratio": 1.04}
{"sequence": "TCAGGGACTC", "switch fluorescence ratio": 1}
{"sequence": "TCAGGGGTA", "switch fluorescence ratio": 1.04}
{"sequence": "TCAGGGTAGA", "switch fluorescence ratio": 0.992}
{"sequence": "TCAGGGTGTA", "switch fluorescence ratio": 1.59}
{"sequence": "TCAGGTGGTT", "switch fluorescence ratio": 1.15}
{"sequence": "TCAGGTGTAC", "switch fluorescence ratio": 1.47}
{"sequence": "TCAGTAAAAG", "switch fluorescence ratio": 1.03}
{"sequence": "TCAGTAGTCG", "switch fluorescence ratio": 0.989}
{"sequence": "TCAGTGCGTC", "switch fluorescence ratio": 0.941}
{"sequence": "TCATAACCTT", "switch fluorescence ratio": 1.72}
{"sequence": "TCATAACGC", "switch fluorescence ratio": 1.11}
{"sequence": "TCATAAGTG", "switch fluorescence ratio": 0.983}
{"sequence": "TCATAATAGT", "switch fluorescence ratio": 1.02}
{"sequence": "TCATACGATG", "switch fluorescence ratio": 1.02}
{"sequence": "TCATACTGAC", "switch fluorescence ratio": 1.31}
{"sequence": "TCATACTGTC", "switch fluorescence ratio": 1.01}
{"sequence": "TCATAGCTAT", "switch fluorescence ratio": 1.1}
{"sequence": "TCATAGGAGG", "switch fluorescence ratio": 0.963}
{"sequence": "TCATAGTAAG", "switch fluorescence ratio": 1.01}
{"sequence": "TCATAGTAGA", "switch fluorescence ratio": 1.01}
{"sequence": "TCATATGGGC", "switch fluorescence ratio": 1.14}
{"sequence": "TCATATTAAT", "switch fluorescence ratio": 1.29}
{"sequence": "TCATCGCAAT", "switch fluorescence ratio": 3.17}
{"sequence": "TCATCGCGGT", "switch fluorescence ratio": 1.26}
{"sequence": "TCATCTATTT", "switch fluorescence ratio": 0.982}
{"sequence": "TCATGACGAC", "switch fluorescence ratio": 1.2}
{"sequence": "TCATGGAAAC", "switch fluorescence ratio": 1.07}
{"sequence": "TCATGGGATT", "switch fluorescence ratio": 0.999}
{"sequence": "TCATGGTGAC", "switch fluorescence ratio": 0.988}
{"sequence": "TCATGTATGC", "switch fluorescence ratio": 1.02}
{"sequence": "TCATGTCTGT", "switch fluorescence ratio": 0.982}
{"sequence": "TCATGTGAAC", "switch fluorescence ratio": 1.01}
{"sequence": "TCATGTGCGT", "switch fluorescence ratio": 1.01}
{"sequence": "TCATGTGCTG", "switch fluorescence ratio": 1.01}
{"sequence": "TCATGTGGG", "switch fluorescence ratio": 1.02}
{"sequence": "TCATGTTAGC", "switch fluorescence ratio": 1.07}
{"sequence": "TCATTCGGA", "switch fluorescence ratio": 1.03}
{"sequence": "TCATTCGGCA", "switch fluorescence ratio": 1.1}
{"sequence": "TCATTGCGA", "switch fluorescence ratio": 1.32}
{"sequence": "TCATTTCCAG", "switch fluorescence ratio": 0.994}
{"sequence": "TCATTTGTCT", "switch fluorescence ratio": 0.979}
{"sequence": "TCATTTTTCG", "switch fluorescence ratio": 1}
